According to publication PMC6634424:
Where a chain is given by its changes, count along the chain named. Results are given in words; binding and its absence hold for the method and conditions named. Some binding calls cover weakened binding; strength is not graded here.

T1: ZED1^‘EDG’ (Arabidopsis thaliana) (UniProt Q8LGB6)
T1 sequence: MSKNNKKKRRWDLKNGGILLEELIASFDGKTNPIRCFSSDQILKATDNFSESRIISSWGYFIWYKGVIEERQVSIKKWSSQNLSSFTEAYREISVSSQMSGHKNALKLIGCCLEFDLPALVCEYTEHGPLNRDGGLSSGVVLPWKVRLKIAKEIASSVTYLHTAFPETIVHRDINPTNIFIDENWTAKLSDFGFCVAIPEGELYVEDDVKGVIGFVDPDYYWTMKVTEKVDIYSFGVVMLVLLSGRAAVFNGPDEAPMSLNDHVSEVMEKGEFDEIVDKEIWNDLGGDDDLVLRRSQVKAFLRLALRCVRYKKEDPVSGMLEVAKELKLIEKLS

T2: ZED1^V212T (Arabidopsis thaliana) (UniProt Q8LGB6)
T2 sequence: T1 sequence with E92D, D173N, G193W, V212T

T3: ZED1^(N173D W193G) (Arabidopsis thaliana) (UniProt Q8LGB6)
T3 sequence: T1 sequence with E92D

T4: ZED1^W193G (Arabidopsis thaliana) (UniProt Q8LGB6)
T4 sequence: T1 sequence with E92D, D173N

T5: ZED1^N173D (Arabidopsis thaliana) (UniProt Q8LGB6)
T5 sequence: T1 sequence with E92D, G193W

T6: ZED1^wt (Arabidopsis thaliana) (UniProt Q8LGB6)
T6 sequence: T1 sequence with E92D, D173N, G193W

T7: ZRK1/RKS1 (Arabidopsis thaliana) (UniProt Q9SVY5)
T7 sequence: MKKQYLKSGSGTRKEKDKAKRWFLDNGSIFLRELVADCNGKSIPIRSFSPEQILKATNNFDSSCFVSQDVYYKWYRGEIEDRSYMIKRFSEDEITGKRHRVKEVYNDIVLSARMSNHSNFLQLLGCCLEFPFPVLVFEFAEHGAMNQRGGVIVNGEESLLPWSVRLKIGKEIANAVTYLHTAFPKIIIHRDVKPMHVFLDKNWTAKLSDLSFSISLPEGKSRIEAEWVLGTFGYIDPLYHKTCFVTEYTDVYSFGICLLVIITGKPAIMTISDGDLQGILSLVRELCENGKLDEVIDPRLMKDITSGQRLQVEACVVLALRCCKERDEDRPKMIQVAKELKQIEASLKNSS

B1: PBL24 (protein, UniProt Q1PE89 1-389)
chain: MSCFLGPSTNNKSRENEGSSMAAPYEQQNLPRNDRRQITTWEAVGTNKESPKNIKAKSFKFRELATATNSFRQEFLIGEGGFGRVYKGKMEKTGQVVAVKQLDRNGLQGNREFLVEIFRLSLLHHPNLANLIGYCLDGDQRLLVHEFMPLGSLEDHLLDVVVGQQPLDWNSRIRIALGAAKGLEYLHEKANPPVIYRDFKSSNILLNVDFDAKLSDFGLAKLGSVGDTQNVSSRVVGTYGYCAPEYHKTGQLTVKSDVYSFGVVLLELITGKRVIDTTRPCHEQNLVTWAQPIFREPNRFPELADPLLQGEFPEKSLNQAVAIAAMCLQEEPIVRPLISDVVTALSFMSTETGSPSGLTGTALNPLSPKTVEDQGWLQCESPRDVYSLL
B2: PBL17 (protein, UniProt Q8H1E3 1-442)
chain: MGICFSAEDQHYQFSQQQNYPKKTTPGKKAAVYLMKSDCEDVVGKVSGSGSGGGGLPLAPKNIKDLQSNPGYENVDIFTYEEMKIATKQFRPDYILGEGGFGVVYKGVIDESVRVGFKSTKVAIKELNPEGFQGDREWLAEVNYLGQLSHPNLVKLIGYCCEDDHRLLVYEYMAMGSLEKHLFRRVGCTLTWTKRMKIALDAAKGLAFLHGAERSIIYRDLKTANILLDEGYNAKLSDFGLAKDGPRGDQTHVSTRVMGTYGYAAPEYVMTGHLTSRSDVYGFGVLLLEMLLGKRAMDKSRACREHNLVEWARPLLNHNKKLLRIIDPRMDGQYGTKALMKVAGLAYQCLSQNPKGRPLMNHVVEVLETLKDDGDAQEEVMTNLHSRGKSVTLYEASSDSQGTRDGNGQRRRRPESGRSKSEAAVDTEKYVSTLSEPDTTKI
B3: PBL27 (protein, UniProt Q1PDV6 1-513)
chain: MSGCLPCFGSSAKDAASKDSVKKELSAKDGSVTQSHHISLDKSKSRRGPEQKKELTAPKEGPTAHIAAQTFTFRELAAATKNFRPECLLGEGGFGRVYKGRLETTGQIVAVKQLDRNGLQGNREFLVEVLMLSLLHHPNLVNLIGYCADGDQRLLVYEYMPLGSLEDHLHDLPPDKEPLDWSTRMTIAAGAAKGLEYLHDKANPPVIYRDLKSSNILLGDGYHPKLSDFGLAKLGPVGDKTHVSTRVMGTYGYCAPEYAMTGQLTLKSDVYSFGVVFLELITGRKAIDNARAPGEHNLVAWARPLFKDRRKFPKMADPSLQGRYPMRGLYQALAVAAMCLQEQAATRPLIGDVVTALTYLASQTFDPNAPSGQNSRSGSGPPFIRTRDDRRSLGDGSSLDSPAETRSRLGSPATHKNSPDYRRRDMVREVNAGSEGGSETGGGSGRKWGLSDLEGQESQRGSPASVGRSSRGTPRNRDLDRERAVAEAKVWGENWRERKRATNGPGSFDSTND
B4: PBL15 (protein, UniProt Q9SY91 1-424)
chain: MRDSSTTASTKSSPLWKPFASNCCSVDDQTVFGNLSRCRPSRSEFSKNHLGPLPSFRRLSFADLSRSSSARINEDLAQTLGADLVDFQMCELKMITQSFSGNYLLGEGGFGKVYKGYVDDYLRQSLKAQPVAVKLLDIEGLQGHREWLSEVIFLGQLKHPNLVKLIGYCCEEEERVLIYEFMPRGSLENHLFRRISLSLPWATRLKIAVAAAKGLAFLHDLESPIIYRDFKTSNILLDSDFTAKLSDFGLAKMGPEGSKSHVTTRVMGTYGYAAPEYVSTGHLTTKSDVYSYGVVLLELLTGRRATEKSRPKNQQNIIDWSKPYLTSSRRLRCVMDPRLAGQYSVKAAKDTALLALQCVSPNPKDRPKMLAVVEALESLIHYKDMAVSSGHWPLSPKSQGGKVSPKVRGDHRSGRKSAPGSLRS
B5: PBL4 (protein, UniProt Q5PP29 1-412)
chain: MGNCFGFSAKVGNRESPYRGSSRISAKRSQSSRLSSLTIQSSSYNDDTSVASLQTPRSEGELLASPTLKAFTFNELKTATRNFRPDSVIGEGGFGYVYKGWIDERTLSPSKPGSGMVVAVKKLKEEGFQGHRQWLAEVDCLGRLHHMNLVKLIGYCSKGDHIRLLVYEYMPKGSLENHLFRRGAEPIPWRTRIKVAIGAARGLAFLHEAQVIYRDFKASNILLDSEFNAKLSDFGLAKVGPTGDRTHVSTQVMGTQGYAAPEYVATGRITAKSDVYSFGVVLLELLSGRLTVDKTKVGVERNLVDWAIPYLGDKRKVFRIMDTKLGGQYPHKGACLTANTALQCLNQEPKLRPKMSDVLSTLEELEMTLKSGSISNSVMKLTSSSSSFTAKQRVRTPVADPVLSSRRCRRVR
B6: PBL18 (protein, UniProt Q5XF79 1-387)
chain: MGNCLDSSARVGNRESTFGGSSRISRKPNQSSRLSSLTIPSYSNNSFTTSSWSNLTPRSEGELLPSPTLKAFTFNELKTATRNFKPNSMIGEGGFGCVYKGWIGERSLSPSKPGSGMVVAVKKLKSEGFQGHKEWLTEVHYLGRLHHMNLVKLIGYCLEGEKRLLVYEYMPKGSLENHLFRRGAEPIPWKTRMKVAFSAARGLSFLHEAKVIYRDFKASNILLDVDFNAKLSDFGLAKAGPTGDRTHVTTQVIGTQGYAAPEYIATGRLTSKSDVYSFGVVLLELLSGRPTLDKSKVGVERNLVDWAIPYLVDRRKVFRIMDTKLGGQYPHKGACAAANIALRCLNTEPKLRPDMADVLSTLQQLETSSKKMGSTQNIVMSPSSHMS

target: T1, ZED1^‘EDG’ (Arabidopsis thaliana); assay: two-hybrid; Y2H: LexA-ZED1 (wt or mutant) bait, PBL (wt or mutant) preys, no effector; X-Gal reporter plates, 30°C

| binding | Binder |
| --- | --- |
| binds | B1 |

target: T2, ZED1^V212T (Arabidopsis thaliana); assay: as above

| binding | Binder |
| --- | --- |
| binds | B2 |
| binds | B3 |
| binds | B4 |
| binds | B5 |
| binds | B6 |

target: T3, ZED1^(N173D W193G) (Arabidopsis thaliana); assay: as above

| binding | Binder |
| --- | --- |
| binds | B1 |

target: T4, ZED1^W193G (Arabidopsis thaliana); assay: as above

| binding | Binder |
| --- | --- |
| binds | B2 |
| binds | B3 |
| binds | B4 |
| binds | B5 |
| binds | B6 |

target: T5, ZED1^N173D (Arabidopsis thaliana); assay: as above

| binding | Binder |
| --- | --- |
| binds | B2 |
| binds | B3 |
| binds | B4 |
| binds | B5 |
| binds | B6 |

target: T6, ZED1^wt (Arabidopsis thaliana); assay: two-hybrid; Y3H: LexA-ZED1 bait, 46 PBL preys, HopZ1b expressed from the ho locus

| binding | Binder |
| --- | --- |
| binds | B2 |
| binds | B3 |
| binds | B4 |

target: T6, ZED1^wt (Arabidopsis thaliana); assay: two-hybrid; Y3H: LexA-ZED1 (wt or mutant) bait, PBL (wt or mutant) preys, HopZ1a^wt expressed from the yeast ho locus

| binding | Binder |
| --- | --- |
| binds | B2 |
| binds | B3 |
| binds weakly | B1 |
| binds | B4 |
| binds | B5 |
| binds weakly | B6 |

target: T7, ZRK1/RKS1 (Arabidopsis thaliana); assay: two-hybrid; Y2H: LexA-ZRK1/RKS1 bait, 46 PBL preys, no AvrAC; X-Gal reporter plates, 30°C

| binding | Binder |
| --- | --- |
| binds | B2 |
| binds | B4 |
